{"source": "the supplement of paper PMC11417369", "note": "± gives the standard deviation of the averaged measurements. The list shows a part of the results.", "data": [{"test_system": "PfAP2-EXP AP2 domain (GST-tagged)", "test": "gcPBM binding intensity (ln(normalized median fluorescence intensity)); higher = stronger DNA binding", "procedure,_shortened": "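Binding intensity values are the highest Masliner-normalised natural-log median intensity among replicate spots of either probe orientation. The binding step lasted 1 h in 1× PBS with 1% milk, 0.2 mg/ml BSA, 0.5% salmon testes DNA and 0.03% Triton X-100, using GST-tagged P. falciparum DNA-binding domains expressed in E. coli on an Agilent 4 × 180k array of primer-extended double-stranded 36-bp intergenic genomic probes plus negative controls. Alexa488 anti-GST antibody and a 488 nm scan detected bound protein.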", "values": [{"sequence": "TATCCTAATGCTACCACACACACAAAAACAAATAAT [CACACA_site2609]", "gcPBM binding intensity (ln)": "8.74 ± 0.57"}, {"sequence": "CCTTACTTCTTATAAAGTACCCAATGATATACATTA [XGTACX_site1554]", "gcPBM binding intensity (ln)": "8.41 ± 0.31"}, {"sequence": "AAAAAAAAGAATAGAGCATGCAAAATATATGAAATA [TGCATGCA_site933]", "gcPBM binding intensity (ln)": "9.48 ± 0.29"}, {"sequence": "ATGTTGAAAGGAAAAAATAATAAAATCGATATATTA [CACACA_negctrl_site549]", "gcPBM binding intensity (ln)": "8.41 ± 0.39"}, {"sequence": "AATATTTATGGGTGCACACAAACATACATATATATA [CACACA_site3395]", "gcPBM binding intensity (ln)": "9.04 ± 0.15"}, {"sequence": "TTTTAATGTATATTTTGTACGTATTATTAATATTCG [XGTACX_site8453]", "gcPBM binding intensity (ln)": "8.55 ± 0.38"}, {"sequence": "TTATCATTACATGAGTGTACATTATTATATTTTTTT [XGTACX_site7845]", "gcPBM binding intensity (ln)": "8.56 ± 0.45"}, {"sequence": "TAAAGATATAAATGCACACGTATTAAAAAAAAAATA [CACACA_site952]", "gcPBM binding intensity (ln)": "8.79 ± 0.43"}, {"sequence": "GAAAGAAAGAAAGAAAGTACATATAAAAATATACAT [XGTACX_site7299]", "gcPBM binding intensity (ln)": "8.43 ± 0.48"}, {"sequence": "ATATATTTTTTTTTTTGTACGTATATTTATATAATT [XGTACX_site8719]", "gcPBM binding intensity (ln)": "8.81 ± 0.45"}, {"sequence": "TCGTGTTTTAAAAAAATGAAGAAAAGTAAAAAAAAA [XGTACX_negctrl_site23]", "gcPBM binding intensity (ln)": "8.46 ± 0.67"}, {"sequence": "ATGATAGTAATTAATAGTACTTTTTTTGATACAAAA [XGTACX_site4288]", "gcPBM binding intensity (ln)": "8.27 ± 0.33"}, {"sequence": "ATTAAATGTATGACTTGTACATAAAATAAAAAAAAA [XGTACX_site6555]", "gcPBM binding intensity (ln)": "8.61 ± 0.35"}, {"sequence": "TAATATGAATATATATGTACATACAATTTGTTATAT [XGTACX_site5815]", "gcPBM binding intensity (ln)": "8.47 ± 0.29"}, {"sequence": "ATTAGTGACATTATTACACACAAAAGAAAACAGAAA [CACACA_site3984]", "gcPBM binding intensity (ln)": "8.9 ± 0.47"}, {"sequence": "TGAATCTATATACAGGTGCGTAAAAAATAACTTATA", "gcPBM binding intensity (ln)": "8.59 ± 0.23"}, {"sequence": "CAAGAATTAAAATAAAGTACAAAAGTAACAACTTTT [XGTACX_site1474]", "gcPBM binding intensity (ln)": "8.25 ± 0.28"}, {"sequence": "AAAAAAAAGGAAAAGGGTACAAAACCATACTTACAT [XGTACX_site4783]", "gcPBM binding intensity (ln)": "8.62 ± 0.54"}, {"sequence": "ATAATATAATATATATGTACACATCCTTTTTGTGTA [XGTACX_site2879]", "gcPBM binding intensity (ln)": "8.62 ± 0.4"}, {"sequence": "TAAAAGTAAAAAGGTAGTACCTAAATAATATATATA [XGTACX_site8399]", "gcPBM binding intensity (ln)": "8.82 ± 0.099"}, {"sequence": "TATATATCCTCTGAATGTACTTGTTTAATAATGTAG [XGTACX_site4332]", "gcPBM binding intensity (ln)": "8.38 ± 0.43"}, {"sequence": "TGTGTAATATTCTGTTGTACATAACTCATAAATAAA [XGTACX_site5308]", "gcPBM binding intensity (ln)": "8.51 ± 0.33"}, {"sequence": "ATAAGATAGGCATATACACACATTTATTTACAGATA [CACACA_site5754]", "gcPBM binding intensity (ln)": "8.4 ± 0.47"}, {"sequence": "TTCAACATATTAAAAAGTACAGAATATAACATTATA [XGTACX_site1361]", "gcPBM binding intensity (ln)": "8.48 ± 0.42"}, {"sequence": "GAATAAAAAATTGGCACACATAAATATATGGATATA [CACACA_site3047]", "gcPBM binding intensity (ln)": "8.54 ± 0.51"}, {"sequence": "AATAAATTTAGACACACACACACATATAAATAAATA [CACACA_site6531]", "gcPBM binding intensity (ln)": "8.78 ± 0.54"}, {"sequence": "TATACGTGAATGACAGTGCATTTCAAAAGTATAAAA [GTGCAC_site9887]", "gcPBM binding intensity (ln)": "8.55 ± 0.32"}, {"sequence": "TTTGGGTATACACATACATGCATGTCCTTATATATA [TGCATGCA_site84]", "gcPBM binding intensity (ln)": "9.57 ± 0.39"}, {"sequence": "ATATCATAAATTTATGCATGTTCTTTCTTCAACTCT [TGCATGCA_site992]", "gcPBM binding intensity (ln)": "8.97 ± 0.49"}, {"sequence": "ATTATTTATTTATTTTTTTTTTTTTTCTCTTTTCCT [GTGCAC_negctrl_site656]", "gcPBM binding intensity (ln)": "8.43 ± 0.52"}, {"sequence": "TTTTTTTTTTCTCTCGCACACATTTTTTAAAATGAG [CACACA_site2607]", "gcPBM binding intensity (ln)": "8.67 ± 0.4"}, {"sequence": "AGTAGGCATATTGGTTGTACAAAAAAATTATGCACC [XGTACX_site8925]", "gcPBM binding intensity (ln)": "8.82 ± 0.36"}, {"sequence": "GACTCTTAAAAAATTTGTACCCACATAAATAATATA [XGTACX_site4313]", "gcPBM binding intensity (ln)": "8.57 ± 0.17"}, {"sequence": "ATATATATATATGTTTATTTATTTGAACGATTGTGG [CACACA_negctrl_site828]", "gcPBM binding intensity (ln)": "9.95 ± 0.38"}, {"sequence": "ATATTTATATAGATGTGTACATAAATATAATAACAT [XGTACX_site1681]", "gcPBM binding intensity (ln)": "8.86 ± 0.3"}, {"sequence": "ACATATATATATATGTGTACATATTTATACAACAAT [XGTACX_site6660]", "gcPBM binding intensity (ln)": "8.84 ± 0.24"}, {"sequence": "AAAAATAAAATATATACACACATATATATATATATA [CACACA_site2943]", "gcPBM binding intensity (ln)": "10.2 ± 0.64"}, {"sequence": "TTTTAAATTGGAGTGGGCAGATTGATATTATTCTTC [GTGCAC_negctrl_site191]", "gcPBM binding intensity (ln)": "8.49 ± 0.61"}, {"sequence": "TTTTTAATTTTGTGGGTGCTTTCGTGTTATTATATA", "gcPBM binding intensity (ln)": "9.04 ± 0.47"}, {"sequence": "TATTATAATAAACCTATACACACATAAATAAATAAA [GTGCAC_negctrl_site627]", "gcPBM binding intensity (ln)": "8.6 ± 0.35"}, {"sequence": "AATGTCAGTATGCGAGGTACACGTATAAAAATTACA [XGTACX_site4109]", "gcPBM binding intensity (ln)": "8.86 ± 0.43"}, {"sequence": "AGGAAATTTGTTATTGCACACAAATTTTTCTTTTTT [CACACA_site8732]", "gcPBM binding intensity (ln)": "8.55 ± 0.25"}, {"sequence": "TACATAAATTAAAACACACACACACTAGAAAAAAAA [CACACA_site5278]", "gcPBM binding intensity (ln)": "8.81 ± 0.51"}, {"sequence": "TTTTACTAAATATATACACACATTATACAGATATAT [CACACA_site5765]", "gcPBM binding intensity (ln)": "8.44 ± 0.32"}, {"sequence": "TATATATATATACCAACACACATACATATATATATA [CACACA_site8530]", "gcPBM binding intensity (ln)": "10.1 ± 0.13"}, {"sequence": "TAAAAAATAAAAATTGCACACTAAAAAATTACGCAC [CACACA_site9129]", "gcPBM binding intensity (ln)": "8.47 ± 0.23"}, {"sequence": "AAGTATAAATTAAAATGTACTTATAAAAAAAAAGAA [XGTACX_site7028]", "gcPBM binding intensity (ln)": "8.65 ± 0.44"}, {"sequence": "TGTCACATAATTTATGCACACAATGATTATGCTTAA [CACACA_site2358]", "gcPBM binding intensity (ln)": "8.47 ± 0.26"}, {"sequence": "CCATATTTCATTAATGAACACACAAAGAGGTATATA [CACACA_site8431]", "gcPBM binding intensity (ln)": "8.81 ± 0.51"}, {"sequence": "TATGTATGTATGTATGCATGTGTAACACCTAAATAT [TGCATGCA_site361]", "gcPBM binding intensity (ln)": "9.01 ± 0.4"}, {"sequence": "ACATATATTGTACATACACACCTATATAAATATCCT [CACACA_site7503]", "gcPBM binding intensity (ln)": "8.82 ± 0.38"}, {"sequence": "TATAAATATTTTATTGTACACACTTTTTATGAATGA [CACACA_site3136]", "gcPBM binding intensity (ln)": "8.86 ± 0.46"}, {"sequence": "TAATATTTCATTAGGTGTACACTACATAGTAGTAGA [XGTACX_site366]", "gcPBM binding intensity (ln)": "8.7 ± 0.071"}, {"sequence": "GTTTGTTTGTTTGTTCGTACATATATAAAATAAAAA [XGTACX_site4731]", "gcPBM binding intensity (ln)": "8.89 ± 0.34"}, {"sequence": "ATTATAACACTTATTTCATTTGTATGCCCTTTAAAA [CACACA_negctrl_site955]", "gcPBM binding intensity (ln)": "8.78 ± 0.32"}, {"sequence": "TATATAACTAAAATAACACACATATATAAAAATATA [CACACA_site7416]", "gcPBM binding intensity (ln)": "8.47 ± 0.33"}, {"sequence": "AGACCTATGATATATACACACATATATTTATTTATA [CACACA_site6630]", "gcPBM binding intensity (ln)": "8.52 ± 0.58"}]}]}
